Measurements from PubChem BioAssay AID1240 (Sanford-Burnham Center for Chemical Genomics, 2008).
Out of some 50,000 compounds screened, about 800 (1.6%) showed an effect of 50% or more. The list shows a part of the results.

target: Bcl-2-like protein 10 (Homo sapiens) (UniProt Q9HD36); assay: TR3 peptide-Bcl-B binding displacers, biochemical primary FP assay, phenotype converters (AID 1240); settings: GST-Bcl-B / FITC-TR3 peptide fluorescence polarization; stronger effect = higher value; compound at 3.75 mg/L;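 further: 0% = Bcl-B with tracer peptide and DMSO and 100% = tracer peptide lacking Bcl-B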
UniProt Q9HD36, sequence (Q9HD36 whole entry, looked up): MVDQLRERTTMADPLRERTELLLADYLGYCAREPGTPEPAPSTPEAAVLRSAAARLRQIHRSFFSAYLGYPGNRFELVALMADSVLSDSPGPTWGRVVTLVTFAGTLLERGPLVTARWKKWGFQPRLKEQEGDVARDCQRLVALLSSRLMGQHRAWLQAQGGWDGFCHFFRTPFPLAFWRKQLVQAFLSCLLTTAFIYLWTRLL

| SMILES | displacement [%] |
| --- | --- |
| CN1C(=O)NC(=O)/C(=C\c2ccc(OCc3ccc(C(=O)O)cc3)c(Br)c2)C1=O | -4.6 |
| COc1ccc(C=C2C(=O)NC(=S)NC2=O)cc1OCc1ccccc1Cl | 8.2 |
| Cn1c(O)c(C=NCc2cccs2)c(=O)n(C)c1=O | 0.7 |
| CN1C(=O)NC(=O)/C(=C\c2ccc(Br)s2)C1=O | 6 |
| CC1(C)CN1S(=O)(=O)c1ccc(Cl)cc1 (stereo not given) | 5.2 |
| O=c1c2ccccc2nc(/C=C/c2ccc([N+](=O)[O-])cc2)n1-c1ccccc1O | -0.4 |
| Cc1nc2c(Cl)cc(Cl)cc2c(=O)n1-c1ccccc1F | -8.1 |
| Oc1ccc(C(=C(Cl)Cl)c2ccc(O)cc2)cc1 | 5.3 |
| CCCCOc1cc(C)cc2oc(=O)c3c(c12)CCCC3 | -6 |
| CCC1(C)CC(CCNCc2ccc(N(C)C)cc2)(c2ccc(F)cc2)CCO1 (stereo not given) | -8.3 |
| CN(CN1C(=O)C(=O)c2cc([N+](=O)[O-])ccc21)[N+](=O)[O-] | -7.1 |
| CCN1CC2([N+](=O)[O-])CC=C(Cl)C([N+](=O)[O-])(C1)C2 (stereo not given) | -18.7 |
| CC(=O)NC1(c2ccccc2)CC(C)N(C)CC1C (stereo not given) | 10.7 |
| COc1ccc(N2C(=O)/C(=C/c3ccc(I)o3)C(=O)NC2=S)cc1 | -30.1 |
| CCCCc1ccc(C=C(C#N)C#N)s1 | -8.4 |
| O=C1NC(=S)NC(=O)C1=Cc1cccc2ccccc12 | 0.7 |
| COc1ccc(O)c(CN2CCN(Cc3ccc(Cl)cc3)CC2)c1 | 13.6 |
| O=C(Cn1c[n+]([N-][N+](=O)[O-])cn1)N1CCN(C(=O)Cn2c[n+]([N-][N+](=O)[O-])cn2)CC1 | 15 |
| O=C(CF)NC(=C(Cl)Cl)P(=O)(c1ccccc1)c1ccccc1 | -1.7 |
| COc1cc(OC)c(OC)cc1CN1CCN(C(C)C)CC1 | -5.4 |
| Cc1c(-c2ccc(C=C3C(=O)NC(=S)NC3=O)o2)ccc([N+](=O)[O-])c1C | 23.7 |
| COc1ccc(C=C2C(=O)NC(=S)NC2=O)c(OC)c1 | 11.9 |

| SMILES | displacement [%] |
| --- | --- |
| Cc1ccc(C(=O)Nc2ccc(Cl)cc2C(=O)c2ccccc2)cc1[N+](=O)[O-] | -0.1 |
| O=C1NC(=S)NC(=O)C1=Cc1ccc(-c2ccc(S(=O)(=O)Nc3nccs3)cc2)o1 | 2.6 |
| CC(Nc1ccc([N+](=O)[O-])c2cccnc12)c1ccc(Br)cc1 (stereo not given) | 13 |
| CCN(CC)CCNc1ccc([N+](=O)[O-])c2cccnc12 | 10.8 |
| O=C(COc1ccccc1)N1CCN(C2CCN(Cc3ccccc3)CC2)CC1 | -5.7 |
| O=C(Nc1ccc(Cl)cc1C(=O)c1ccccc1)c1cncc(Br)c1 | 15.9 |
| Cc1cccc(-n2c(CN3C(=O)c4ccccc4C3=O)nc3ccccc3c2=O)n1 | -16.3 |
| COc1ccccc1-n1c(/C=C/c2ccc(O)c(O)c2)nc2ccccc2c1=O | -24.6 |
| CCOC(=O)c1c(-c2ccccc2)n(Cc2ccccc2)c2ccc(OC(C)=O)cc12 | -4.7 |
| O=C(c1ccc([N+](=O)[O-])cc1)C12CN3CN(CN(C3)C1)C2 | 0 |
| O=c1c2cc(I)ccc2nc(/C=C/c2ccccc2O)n1-c1ccccc1 | 8.4 |
| O=c1c2ccccc2nc(/C=C/c2cccc(Br)c2)n1-c1ccccc1O | 2.8 |
| O=C(COc1ccc2ccccc2c1)N1CCN(Cc2ccccc2[N+](=O)[O-])CC1 | 7.9 |
| CC1CN(C)CCC1(O)c1ccccc1 (stereo not given) | 3.5 |
| O=[N+]([O-])c1ccc(N2CCNCC2)cc1NC1CC1 | 8.5 |
| O=C1NC(=S)N(c2cccc(Br)c2)C(=O)/C1=C/c1cccs1 | 12.1 |
| O=c1c2ccccc2nc(-c2ccccc2F)n1-c1ccccc1Cl | -8.7 |
| Cc1ccccc1CN1CCN(C(=O)COc2ccc3ccccc3c2)CC1 | -8.7 |
| CN1CCN(c2ccccc2[N+](=O)[O-])CC1 | -15.4 |
| O=C(COc1ccc2ccccc2c1)N1CCN(Cc2ccc3c(c2)OCO3)CC1 | -3.6 |
| CCC1(CC)C(=O)N(Cc2ccccc2)C(=O)N(Cc2ccccc2)C1=O | -2.4 |
| O=C1NC(=O)N(c2ccc(Br)cc2)C(=O)/C1=C/c1ccc(Oc2ccc([N+](=O)[O-])cn2)cc1 | 3 |

| SMILES | displacement [%] |
| --- | --- |
| Oc1ccc(Br)cc1CN1CCN(Cc2ccccc2F)CC1 | -0.7 |
| Cc1ccccc1-n1c(-c2cccs2)nc2ccccc2c1=O | -3 |
| O=C1NC(=S)N(c2cccc(Br)c2)C(=O)/C1=C/C=C/c1ccccc1 | -16.4 |
| COC(=O)C(Cc1ccccc1)N1CC1C(N)=O (stereo not given) | 12.4 |
| CC12CCCCC1=NC(c1ccccc1Cl)N2O (stereo not given) | -8 |
| CC1(C)C(C(=O)NCc2ccco2)C1(C)C | 19.1 |
| CC(C)N1CCC(N2CCCCC2)CC1 | -7.6 |
| COC(=O)N1[C@H](c2ccccc2)[C@@H]1c1ccccc1 | 11.9 |
| O=C1NC(=S)NC(=O)C1=Cc1ccc(OCc2cccc3ccccc23)cc1 | 17.2 |
| O=C(c1ccccc1)c1cc(Cl)ccc1NC(=O)c1cc2ccccc2oc1=O | -7.2 |
| Cc1ccc(C=C2C(=O)NC(=O)NC2=O)cc1[N+](=O)[O-] | 8.3 |
| CCCCC1(C)NCCN2C(=O)CSC21 (stereo not given) | 4.8 |
| CC1(C)C(c2ccccc2)=NC(c2cccnc2)N1O (stereo not given) | 6.1 |
| COc1cc(C=C2C(=O)NC(=S)NC2=O)cc(Br)c1OCc1c(C)no[n+]1[O-] | 6.5 |
| CC(C)C(=O)N1N=C(c2cccnc2)CC1(O)C(F)(F)F (stereo not given) | -2.2 |
| O=c1[nH]c(=O)n(Cc2ccccc2)c(O)c1C=C1C=Nc2ccccc21 | 8.6 |
| Cc1[nH]c2ccccc2c1CN1CCOCC1 | 7.9 |
| CCCC(C)C1C(C#N)=C(N)Oc2c1c(=O)oc1ccccc21 (stereo not given) | -10.2 |
| CCCCCn1c(=O)c(C(=O)Nc2ccc(OC)cc2)c(O)c2ccccc21 | 0 |
| CCC12CN3CCN(CC(C3)/C1=N\O)C2 | 5.4 |
| CC(=O)N1N=C2C3CCN(CC3)C2C1c1ccc([N+](=O)[O-])cc1 (stereo not given) | 6.2 |
| CC/C(=C\C=C\C1C=CC2CCCC2C1C(=O)c1ccc[nH]1)C1OC(C(C)C(=O)O)CCC1C (stereo not given) | 12.9 |

| SMILES | displacement [%] |
| --- | --- |
| O=C(Cc1ccc(Br)cc1)N1CCN(Cc2ccccc2)CC1 | 1.9 |
| Cc1cccc(-n2c(/C=C/c3ccc(O)cc3)nc3ccccc3c2=O)c1 | -4.6 |
| COc1cccc(C=C2C(=O)NC(=O)NC2=O)c1 | 9.8 |
| COc1ccccc1-n1c(/C=C/c2ccc(O)cc2)nc2ccccc2c1=O | 119 |
| O=c1oc2ccccc2c(O)c1C(c1cccnc1)c1c(O)c2ccccc2oc1=O | 3.8 |
| Cc1cc(C=C2C(=O)NC(=O)NC2=O)c(C)n1-c1ccc(N(C)C)cc1 | 0.1 |
| Cc1ccc(-n2c(-c3ccccc3F)nc3ccccc3c2=O)cc1 | -0.1 |
| O=c1c2ccccc2nc(/C=C\c2ccccc2)n1-c1ccc(O)cc1 | -4.1 |
| CCC(=O)O[C@]1(c2ccccc2)CCN(C)[C@H]2CCC[C@H]21 | -5.5 |
| COc1ccc(C(c2c(O)c3ccccc3oc2=O)c2c(O)c3ccccc3oc2=O)cc1CN1CCOCC1 | 15.4 |
| C=CCSc1nc2ccccc2c(=O)n1-c1ccccc1OC | 1.1 |
| Cc1cccnc1-n1c(-c2ccc(Cl)cc2Cl)nc2ccccc2c1=O | -12.2 |
| OC1C2CCC1C(N1CCCCC1)CC2 (stereo not given) | -3.7 |
| COc1ccc(CN2CCN(Cc3ccccc3Cl)CC2)cc1Br | -15 |
| Cc1cc(Cl)ccc1OCC(=O)N1CCN(C/C=C/c2ccccc2)CC1 | -0.9 |
| CN1C(=O)NC(=O)/C(=C/c2cn(C)c3ccccc23)C1=O | 108 |
| O=[N+]([O-])N=C1NC(OCc2ccccc2)C(OCc2ccccc2)N1 (stereo not given) | 1.4 |
| CCCCn1c(=O)c(C(=O)Nc2ccc(I)cc2)c(O)c2ccccc21 | 7.1 |
| CC1(C)C(C(=O)Nc2cccnc2)C1(C)C | -1.5 |
| CN1C(=O)NC(=O)/C(=C\c2cc3c(cc2Cl)OCO3)C1=O | 0.4 |
| O=c1oc2ccccc2c2c1C(c1ccc(Cl)cc1)c1c(c3ccccc3oc1=O)O2 | 10.3 |
| CC12CCC3C(CC=C4CC(O)CCC43C)C1C/C(=C\c1ccc(F)cc1)C2=O (stereo not given) | 15.1 |

| SMILES | displacement [%] |
| --- | --- |
| CCC1(c2ccccc2)C(=O)NC(=O)N(C(=O)c2ccccc2Br)C1=O (stereo not given) | 0.5 |
| O=C(Nc1ccc(Cl)cc1C(=O)c1ccccc1Cl)c1ccco1 | 0.4 |
| COc1cc(OC)c(OC)cc1CN1CCN(C(=O)COc2ccccc2)CC1 | -13.1 |
| COc1ccc(C=C(C#N)C#N)c(OC)c1 | 3.6 |
| O=C1NC(=S)NC(=O)C1=Cc1ccc(-c2ccc([N+](=O)[O-])cc2Br)o1 | 29 |
| COc1cc(C=C2C(=O)NC(=O)NC2=O)cc(Cl)c1O | 8.5 |
| COc1cc(/C=C2\C(=O)NC(=O)N(c3ccccc3)C2=O)c([N+](=O)[O-])cc1OC | 22.8 |
| O=c1c2ccccc2[nH]c(=S)n1-c1ccc(Cl)cc1 | -10.5 |
| COc1ccc(OC)c(CN2CCN(C(=O)COc3ccccc3)CC2)c1 | 0.4 |
| CC(C)Oc1ccc(Br)cc1C=C1C(=O)NC(=O)NC1=O | 14.5 |
| O=c1c2ccccc2nc(/C=C/c2cc(Br)ccc2O)n1-c1ccc([N+](=O)[O-])cc1 | 6.7 |
| Cc1cc(C)cc(-n2c(C)cc(C=C3C(=O)NC(=O)NC3=O)c2C)c1 | 13.1 |
| Cc1cc(N2CCNCC2)c2ccccc2n1 | -4.7 |
| Cc1ccc(-n2c(/C=C/c3c[nH]c4ccccc34)nc3ccccc3c2=O)cc1 | -0.5 |
| O=C1NC(=O)C(=Cc2cccc(OCCOc3ccc([N+](=O)[O-])cc3)c2)C(=O)N1 | -7.4 |
| O=C(Cc1ccccc1)N1CCN(C2CCCC2)CC1 | -3.6 |
| CN1CCN(/N=C/c2c(O)n(C)c(=O)n(C)c2=O)CC1 | -2.6 |
| Cc1cc(C=C2C(=O)NC(=O)NC2=O)c(C)n1C1CCCCC1 | 124 |
| O=C1c2ccccc2C(=O)N1CC1CS1 (stereo not given) | 15.1 |
| O=C(O)C12C3CCCC1C32c1ccccc1 (stereo not given) | 21.9 |
| CC(C)CCn1c(=O)c(C(=O)Nc2nc3ccc(Br)cc3s2)c(O)c2ccccc21 | 4.5 |
| O=C1NC(=S)N(c2ccc(F)cc2)C(=O)/C1=C/c1ccc2c(c1)OCO2 | -4.8 |
